Laboratory results: patent US10933032B2, “Methods for the treatment of cancer using coenzyme Q10 combination therapies” (Berg LLC, priority 2013, dated 2021)

Assays:
[1] = system: non-tumorigenic mammary cells (MCF12A); test: Number of viable cells; format: cell-based; conditions: CoQ10 (100 μM) alone, or pretreatment / cotreatment with 5-FU, doxorubicin or SN38, 48 hours
Method: Human breast cancer cells of varying receptor status (SKBR3, MDA-MB231) were subjected to either (a) pretreatment with CoQ10 (6 h) followed by co-incubation with chemotherapeutic agents (5-fluorouracil, 5-FU; doxorubicin, Doxo; SN38, irinotecan active metabolite) for 48 h, or (b) co-treatment with CoQ10 and chemotherapeutic agents. Cancer cell responses were compared to non-tumorigenic mammary cells (MCF12A). […] Propidium iodide (PI) and CFSE Cell Tracer were used to measure cell death and proliferation, respectively, in the treated cells.

[2] = system: Human pancreatic cancer cells (PcCa2); test: Number of viable cells, CoQ10 pretreatment or cotreatment with gemcitabine (Example 18); format: cell-based; conditions: cotreated with 100 μM CoQ10 and gemcitabine (0.1, 1 and 5 μM), *p<0.05, FIG. 26
Method: Human pancreatic cancer cells (PcCa2) were pretreated with 100 μM CoQ10 followed by treatment with gemcitabine (0.1, 1 and 5 μM), or cotreated with CoQ10 and gemcitabine.

Hep3B liver cancer cells = conditions: CoQ10 (100 μM) with irinotecan (SN38), cisplatin, 5-fluorouracil or doxorubicin, FIGS. 9A-9C and 10

## COC1=C(OC)C(=O)C(C/C=C(\C)CC/C=C(\C)CC/C=C(\C)CC/C=C(\C)CC/C=C(\C)CC/C=C(\C)CC/C=C(\C)CC/C=C(\C)CC/C=C(\C)CCC=C(C)C)=C(C)C1=O [CoQ10, Coenzyme Q10]
[1]
  Number of viable cells: minimal effects
[2]
  Number of viable cells compared to gemcitabine alone, cotreatment: significantly decreased the number of viable cells
Hep3B liver cancer cells
  Efficacy of chemotherapeutic agents (cell death, number of live cells): increase the efficacy of all of the chemotherapeutic agents
